According to the supplement of paper PMC11417369:
The other results are listed elsewhere or left out.

system: PfSIP2 AP2 domain 1 (GST-tagged); assay: gcPBM binding intensity (ln(normalized median fluorescence intensity)); higher = stronger DNA binding
Method in brief: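 The highest Masliner-normalised natural-log median intensity across replicate spots of either probe orientation is reported as binding intensity. GST-tagged P. falciparum DNA-binding domains expressed in E. coli were applied for 1 h to an Agilent 4 × 180k array of primer-extended double-stranded 36-bp intergenic genomic probes plus negative controls, and bound protein was detected with Alexa488 anti-GST antibody and scanned at 488 nm.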

Sequence	gcPBM binding intensity (ln)
ATATAAAAAGTGTATCGTACATTTACTTATTTTATA [XGTACX_site6249]	6.99
ATAAAAAAAGGACACACACACATATATATATATATA [CACACA_site5662]	9.46
ATTGAAAATTGTTGCACACATAATAATTAAATATAT [CACACA_site1857]	7.25
TATATTTCTTATTTCTTATTTTGTCATCACCTTTTT [CACACA_negctrl_site1115]	6.86
TTACATAATATATGTACACACGCAAATACTTATAAT [CACACA_site7995]	7.01
TATAAATATGTTCTTACACACACGAATATAAATATG [CACACA_site7537]	6.99
AAAAAAATCACATAAAATACTTTATTTTATATTATA [GTGCAC_negctrl_site372]	6.81
GCTTATGCTCAATATTGTACTTTTTTTATTTATTCA [XGTACX_site8863]	7.21
TACTTCTTTTTTATTTATTTTACTTTTTATTCTGTA [CACACA_negctrl_site772]	7.18
ATTTAATTTTTTTTTAAACACACATTTTTTTATTTA [CACACA_site8880]	6.91
TTCAATTATATTCTTTGTACGAATCTTCTATAAATT [XGTACX_site4346]	6.99
AAAATTATTAAATATGTACACACGTACATTTTATAA [CACACA_site8750]	7.01
ATATATATATATATATGTACATATACACATGTGTGC [XGTACX_site168]	9.46
AAATAAATAATAAATAAATAAATAAAATACCAAATA [GTGCAC_negctrl_site620]	7.02
TATAAATATGTGTATACACACCTGATAAAGGTATAT [CACACA_site7283]	6.97
TTATGTAGTATAATGAGTACTAAATATAGATATGTT [XGTACX_site6335]	7.19
AATATTATAAATGATACACACTTAAAATACAGACAC [CACACA_site8868]	7.5
AATTACTTAAATTATTGTACCCTAATGTTAATTTCA [XGTACX_site825]	7.01
TTTTATATCTACCTTTGTACATATTTATTTTTTTTA [XGTACX_site7872]	7.17
TTCATAAAAAATGTAGTGCATTGAATAAAATTACAT [GTGCAC_site9393]	8.06
TTAATTTTGGTAAATGCATGTAATTAAAAATAAAAA [TGCATGCA_site234]	7.12
ATATTGAAATTAAAAAAATATATGAACAAATGATGA [CACACA_negctrl_site602]	7.07

Sequence	gcPBM binding intensity (ln)
TAAATTTTTTTTTTTTGTACACAAAAATATAATATT [XGTACX_site8151]	6.74
TATTTTGAAATGGAAAGGATATAGAACTTAAACAAA [CACACA_negctrl_site1530]	7.07
TTTATAAAAAGCATAACACACACATGTCAATATATA [CACACA_site8286]	6.96
AACATACGACAATACGCACACATATAAGTACATATT [CACACA_site8584]	7.13
ATACATTCAAAATATACACACATATATCTATAATAT [CACACA_site6576]	7.1
TTTCTTTAGTAGAATGTAAAAAATATAATCTTCTTA [TGCATGCA_negctrl_site298]	6.47
TTACAAAACCGATGTTGTACATTCAATAGATAATGT [XGTACX_site3806]	7.08
AATGTATAAAAGTTTTGTACATATTCTCACACATAT [XGTACX_site965]	6.97
ATATACCATATGCATGGTACACATTTACAACAAAAA [XGTACX_site3142]	6.97
TAGTTGTGAGTTACATGTACATGTATTTATTTTTTA [XGTACX_site7088]	6.91
TTTATTAAATAAAGCACACACAACAACTTTTCACAA [CACACA_site4132]	7.05
GATAACAATATGTGTACACATTTATATCTCCACATA [CACACA_site5442]	7.29
ATAACGTAAACAATGTGGACACATACATAAATATAT [XGTACX_site707]	7.43
TATAACAAGTAATGGTGTACATTATATTATGTAATA [XGTACX_site2761]	6.95
CATATGCGTCTTGCCTTGCACACTTTTATGAAAAAA [CACACA_site2055]	7.29
TAATACTTAAAATGTTGTACATAATAATTTTATATT [XGTACX_site5403]	7
TATATATATATATATACATGCATTTCTCATGTACAT [TGCATGCA_site621]	9.73
GTCATCATAATCTATTGTACAAAAATTTATACAGAT [XGTACX_site1059]	7.26
TACATTAAACGAATAGTGCAAGAAGTATTCGTATAA [GTGCAC_site9939]	7.93
TATAAAAATAAGTATACACACAAAATGCGTAACTTT [CACACA_site1295]	6.72
ATAAATACATTAAAATGTACATAAAAATATTACTGG [XGTACX_site1484]	6.85
AAAAAAAAAAAAAACACACACACACGCAAATACATA [CACACA_site6474]	7.4

Sequence	gcPBM binding intensity (ln)
TCCTTAAATATAAAGGTGCTATGCAGACCTTATGTT [GTGCAC_site9472]	7.9
ATATAAGTACGGCATGCATGCACATTTTTTTATTCC [TGCATGCA_site101]	7.09
TTATAAATTCAATGTACTACACAAAATGAATTTAAT [XGTACX_site6683]	6.82
TACAGACATAGACACACACACACGCATAAAAAAAAA [CACACA_site6820]	7.3
TTCCTATAAAAAAACACACACATATAAATATAAATA [CACACA_site7154]	7.18
TGTGCTCGCTATTACACACTCATTGGGATAAAATTG [CACACA_site2029]	7.14
TACATAAACATTTATACACACATTATATATACATAT [CACACA_site8028]	7.13
TGGCTTATTCAGAAATGTACACATATAAATATATAT [XGTACX_site3765]	7.11
TTTCTTTTAATTATCCGTACACAAACAATAAAATAA [XGTACX_site7841]	7.57
AAAATAATATATGTATGTACACAATTATTTATAAGT [XGTACX_site7267]	7.12
TGAATAAATAAGATACGTACACACATATACAAAATA [XGTACX_site7758]	7.06
AAATAAATAAATAGAGTGCATATATATATATATTTT	8.61
CTTTTTATTTATCATACACACACAGAAAAAAAAAAA [CACACA_site7935]	7.34
ATATACAAAGGATTAACACACATATTATTATAGATA [CACACA_site6966]	6.9
AATTTTTAGAAGAACACACACATATATATTATGACC [CACACA_site246]	7.18
ATTATGCACAGACACACACACACACTACTAAAAAAT [CACACA_site7252]	7.88
ATAGGAGAAAAAGAATGTACGTATGATGTTGAAAAT [XGTACX_site7779]	7.28
AAAAAAAATAAAAATATATATATATATATATAAATA [GTGCAC_negctrl_site676]	7.39
AAGCATTTTTTTTAAAGCCTGTTCATCATCCTTACC [CACACA_negctrl_site129]	6.94
ACCGTGGGAGGACACACACACACACGCACATATATA [CACACA_site6289]	7.55
AAATAACTTTTAAATACACACGTAAAATATATTGTG [CACACA_site9085]	7.02
TACATTATAAATATTACACACTTTATAAAATAATAA [CACACA_site6096]	6.96

Sequence	gcPBM binding intensity (ln)
TCCTTTTTTTTTTATGCACACACAATTATACATTCC [CACACA_site9287]	7.84
ATAATATTTTTATGTACACACCTTAATCCTTAAAAG [CACACA_site5881]	7.08
TTAACCACTAAAAGTACACACATATATACATATATA [CACACA_site3912]	7.29
TCTATTAATTAATATACACACATTATATATATATAT [CACACA_site8815]	9.54
AATATATATATATATATATTTTTGTTAGAATATGGA [CACACA_negctrl_site212]	7.45
AAATATTACATACACGCACACATTAAAATATTTAAA [CACACA_site5440]	7.16
ATGTACCTTCAAACTACACACAAATGAAGGAACACA [CACACA_site3330]	7.18
ATCTAATAAAAATACACACACATATGGTTTGTGAAT [CACACA_site6962]	6.83
ATATAGAATGTTTACACACGCAATAAATATATATAT [CACACA_site217]	8.65
GCGTATCATTTTAAAACACACAGGATTTTATAAGTA [CACACA_site1225]	7.03
ATGGTATAAAAAAATACACACTTATTTATATTCTTA [CACACA_site6370]	6.84
TGTAGTCTGGAGAAGAGTACACAGTATCTGGTAGCT [XGTACX_site2036]	6.79
TTAAAAAATCACAACACACACACACGCAAAAAAAAA [CACACA_site6793]	7.17
AAAAATAACATATAAACACACATATAGATTTATATA [CACACA_site7738]	6.83
ACCATATAAAGTTAGGTGCATTTGTATGTATCTTAC	9.18
TCTTGTTCGCCCTATTGTACAAACATATATTGTGAT [XGTACX_site2884]	7.42
TTATTTTGATCTGGTTGTACATATAATATATAGTGG [XGTACX_site357]	7.19
ATTAATTTGATTTTAATAAGAATATTTGTGGGGAAT [GTGCAC_negctrl_site198]	7.03
TTTTATTTTTGTTGGTCCCTCATTTAAGTTAATAAA [TGCATGCA_negctrl_site465]	7.22
ATATTGATTTGTGGCACACATATAATATATTCCTAT [CACACA_site3046]	6.91
TTTTCAATATATATATGCTGAATTTATAATTTGTAT [CACACA_negctrl_site1774]	6.89
TGAATAATAAAAAATACACACACATATATATATATT [CACACA_site9146]	7.02
